# Results from PubChem BioAssay AID2451 (National Center for Advancing Translational Sciences (NCATS), 2010).
# The whole screen tested about 290,000 compounds, of which about 2,100 (0.72%) were called active. Not shown: some 4% with an inconclusive outcome. The call rests on the fitted dose curve; in most records, active means well fitted inhibition curve with a large enough effect; inconclusive means small, poorly fitted or top-dose-only effect, or effect the other way; inactive means flat fitted curve, though single readings scatter. The list shows a part of the results, in another mix than the full data. More than one record can exist for a structure, and the calls need not agree.
# Target: Fructose-bisphosphate aldolase (Giardia intestinalis (strain ATCC 50803 / WB clone C6)) (UniProt A8B2U2)
# Assay: qHTS Assay for Inhibitors of Fructose-1,6-bisphosphate Aldolase from Giardia Lamblia; further: nearly all actives have a fitted effect of over 55% in size
# Details: purified Giardia FBPA; series mostly up to 59.6 µM; activity, negative = inhibition: at the top concentration
# Excerpt: Assay Provider: Osnat Herzberg, University of Maryland
# The objective of this project is to obtain compounds that inhibit Giardia lamblia growth. G. lamblia is a human pathogen which afflicts impoverished nations; it is the most common cause of outbreaks of diarrhea in the United States. During the course of our study of potential drug targets in Giardia, we have identified the Class II (Zn2+ functions in electrophilic catalysis) fructose-1,6-bisphosphate aldolase (FBPA) as an excellent candidate for drug targeting. FBPA is a key glycolytic pathway enzyme, essential for G. lamblia survival. The human FBPA belongs to the Class I aldolases, which have a different substrate binding site structure and a radically different catalytic mechanism (employing a lysine-Schiff base intermediate). Therefore, affinity-based or mechanism-based inhibitors of the Giardia FBPA are expected not to interfere with the catalytic function of the human FBPA.
# A glyceraldehyde-3-phosphate dehydrogenase/triose phosphate isomerase/NAD/arsenate coupled assay was adapted to the 1536-well HTP format for use in the primary screen. This was done by coupling it to a diaphorase/resazurin/resorufin reaction that can be monitored by fluorescence (excitation, 544 nm; emission, 590 nm). Compounds identified in this screen will be further evaluated by coupling the glycerol-3-phosphate/triose phosphate isomerase/NADH assay to a phenazine methosulfate/tetranitroblue tetrazolium color reaction. False positives due to the dehydrogenases and diaphorase inhibition will be eliminated, and selectivity assay will triage inhibitors of mammalian triose phosphate isomerase and the Class I FBPA. G. lamblia FBPA inhibitors identified by the in vitro analyses will be examined for growth inhibition of Giardia trophozoites, and for cytotoxicity in human cells.
# Step,Parameter,Value,Description
# 1,Enzyme reagent,2 uL,40 nM FBPA
# 2,Compound,23 nL,3.68 nM-57.5 uM final concentration
# 3,Time,10 min,RT Incubation
# 4,Substrate/detection Reagent,2 uL,Substrate + enzyme coupling system + AmpLite Red kit
# 5,Time,20 min,RT Incubation
# 6,Detector,525 nm/598 nm (Fluorescence),ViewLux Fluorescence Read (Read 1)
# 1,Medium-binding black solid-bottom Kalypsys plates. FRD or Kalypsys dispenser, 2 uL of FBPA enzyme. Bottle kept at 4C.
# 2,Compound Library (10 mM ,1:5 dilution). Pin-transferred for a [final] range of 3.68 nM-57.5 uM.
# 4,FRD or Kalypsys dispenser, 2 uL of reaction mixture. Bottle kept at 4C and covered in foil to protect from light.
# 6,ViewLux Protocol 1194; Excitation filter wheel A (525/20 Pol; BODIPY TMR FP), Emission filter wheel B (598/25 S; BODIPY TMR FP S).
# Keywords: Fructose-bisphosphate aldolase, FBPA , Giardia lamblia , Giardia, HTS, Inhibitors
# On the % scale 0 is the no-effect control and ±100 the full control effect; potency means the concentration at half of the fitted maximal effect.
# UniProt A8B2U2, sequence (A8B2U2 whole entry, looked up): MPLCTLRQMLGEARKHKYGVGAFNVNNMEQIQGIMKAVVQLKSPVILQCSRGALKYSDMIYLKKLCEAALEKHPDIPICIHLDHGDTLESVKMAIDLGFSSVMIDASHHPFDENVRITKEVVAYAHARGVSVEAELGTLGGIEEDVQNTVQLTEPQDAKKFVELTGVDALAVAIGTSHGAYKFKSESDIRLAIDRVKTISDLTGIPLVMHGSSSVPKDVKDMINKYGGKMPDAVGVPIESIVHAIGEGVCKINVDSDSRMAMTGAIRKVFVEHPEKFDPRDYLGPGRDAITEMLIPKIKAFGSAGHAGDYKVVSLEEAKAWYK
Compound,Potency,"activity, negative = inhibition"
NS(=O)(=O)c1cc2c(cc1Cl)NC(CSCc1ccccc1)=NS2(=O)=O,inactive,–
c1ccc(-c2ccccn2)nc1,–,inactive: -1.1%
CCN(CC)C(=S)SSC(=S)N(CC)CC,inactive,–
COc1cc2nc(N3CCN(C(=O)[C@@H]4CCCO4)CC3)nc(N)c2cc1OC,–,inactive: -8.52% [at 21.7 µM]
O=c1c(O[C@@H]2O[C@H](CO)[C@@H](O)[C@H](O)[C@H]2O)c(-c2ccc(O)c(O)c2)oc2cc(O)cc(O)c12,–,inactive: -19.5%
CCCCC1=CC2=C(c3ccco3)C(=O)C(C)(OC(=O)c3ccc(OC)cc3)C(=O)C2=CN1CCN1CCOCC1 (centres undefined),–,inactive: -23.7%
CCCCC1=CC2=C(c3ccco3)C(=O)C(C)(OC(=O)c3ccc(OC)cc3)C(=O)C2=CN1C(CO)CO (centres undefined),–,inactive: -19.5%
O=C(O)CSc1cc(NS(=O)(=O)c2cccc([N+](=O)[O-])c2)c2ccccc2c1O,active: 2.51 µM,–
Oc1cc2c(cc1O)CN(C(=S)NCCc1ccc(Cl)cc1)CCC2,–,inactive: -17.6%
C[C@H](NC(=O)c1nc[nH]c1C(=O)NCC(=O)OC(C)(C)C)c1ccccc1,–,inactive: -29.8%
Cc1coc2c1C(=O)C(=O)c1c-2ccc2c1CCCC2(C)C,–,inactive: -27.8%
CCOC(=O)C1=C(C)NC2(O)c3ccccc3C(=O)C12O (centres undefined),–,inactive: -22.5%
CCC(C)[C@H](NC(=O)N1CC(=O)Nc2ccccc21)C(=O)N[C@@H](Cc1c[nH]c2ccccc12)C(=O)O (some centres undefined),–,inactive: 4.32%
O=C(O)c1ccc(N/N=C/c2ccncc2)cc1,active: 3.98 µM,–
CCCCN(C)S(=O)(=O)c1ccc(C(=O)Nc2nnc(C3=COCCO3)o2)cc1,active: 17.7 µM,–
CC[C@H]1CN2CCc3cc(OC)c(OC)cc3[C@@H]2C[C@@H]1C[C@H]1NCCc2cc(OC)c(OC)cc21,inactive,–
CNC(C)C(O)c1ccccc1 (centres undefined),–,inactive: -6.01%
O=C(Nc1nccs1)c1cn2ccccc2n1,active: 14.1 µM,–
CN1CCCN(Cc2ccc(Cl)cc2Cl)CC1,active: 19.9 µM,–
O=C(O)[C@@H]1C[C@@H](C(=O)O)N1,–,inactive: -5.48%
C=CCNCCCOc1ccc(Cl)cc1C(C)(C)C,active: 17.7 µM,–
COC(=O)C1=C(C)NC(C)=C(C(=O)OC)C1c1ccccc1[N+](=O)[O-],inactive,–

Compound,Potency,"activity, negative = inhibition"
CNC(C)[C@H](O)c1ccccc1 (some centres undefined),–,inactive: -0.941%
CN(C)CCCOc1nn(Cc2ccccc2)c2ccccc12,–,inactive: -1.94% [at 21.7 µM]
O=C(/C=C\c1ccc(O)c(O)c1)O[C@@H](Cc1ccc(O)c(O)c1)C(=O)O,–,inactive: -29.1%
COc1cc2nc(N3CCN(C(=O)C4CCCO4)CC3)nc(N)c2cc1OC (centres undefined),inactive,–
CCCCC1=CC2=CC(=O)C(C)(OC(=O)CC)C(=O)C2=CN1CCN1CCOCC1 (centres undefined),–,inactive: -14.3% [at 12.9 µM]
CCN(CC)Cc1cc(O)c(CN(CC)CC)cc1O,active: 5.61 µM,–
CC[n+]1c(/C=C2\C=C(C)CC(C)C2)sc2ccccc21 (centres undefined),–,inactive: -17%
COc1cccc2c1C(=O)c1c(O)c3c(c(O)c1C2=O)C[C@@](O)(C(=O)CO)C[C@@H]3O[C@@H]1C[C@H](N)[C@H](O)[C@H](C)O1,–,inactive: -26.4%
Cc1nnc(N/N=C\c2ccc(-c3cccc(C(=O)O)c3)o2)n1N,active: 8.89 µM,–
O=C(Cn1ccnc1)c1ccc(Cl)cc1,–,inactive: -6.15%
COc1cccc2c1C(=O)c1c(O)c3c(c(O)c1C2=O)C[C@](O)(C(C)=O)C[C@H]3O[C@@H]1C[C@H](N)[C@H](O)[C@H](C)O1,–,inactive: -16.4% [at 21.7 µM]
CS(=O)(=O)Nc1ccc([N+](=O)[O-])cc1Oc1ccccc1,inactive,–
Brc1cc2[nH]cnc2c2ccccc12,active: 17.7 µM,–
Cc1cccc(Nc2cc(Cl)nc(SCC(=O)O)n2)c1C,inactive,–
Cn1cc(C2=C(c3ccc(Cl)cc3Cl)C(=O)NC2=O)c2ccccc21,inactive,–
O=C1CN(/N=C\c2ccc([N+](=O)[O-])o2)C(=O)N1,–,inactive: -24% [at 21.7 µM]
O=C(O)[C@H]1[C@H]2C[C@H]3c4[nH]c5ccccc5c4CCN3C[C@@H]2CC[C@@H]1O,–,inactive: -27.8%
Cc1ncc(C[n+]2csc(CCO)c2C)c(N)n1,–,inactive: -10.4% [at 21.7 µM]
O=c1cc(-c2ccccc2)oc2c(O)c(O)ccc12,active: 7.92 µM,–
COC(=O)C1=C(C)NC(C)=C([N+](=O)[O-])C1c1ccccc1C(F)(F)F (centres undefined),inactive,–
COc1ccc2nc3c(cc2c1)Cc1ccccc1-3,active: 17.7 µM,–
CCN(CC)CCOC(=O)[C@@H](Cc1cccc2ccccc12)C[C@@H]1CCCO1,–,inactive: -25.7% [at 21.7 µM]

Compound,Potency,"activity, negative = inhibition"
CCCC1CC(C(=O)NC(C(C)Cl)C2OC(SC)C(O)C(O)C2O)N(C)C1 (centres undefined),–,inactive: -28.5%
CCOc1cccc(CNc2ccc(O)cc2)c1OCc1ccc(Cl)cc1Cl,active: 12.6 µM,–
CN(CC(=O)Nc1ccccc1Br)Cc1nc2ccccc2c(=O)[nH]1,active: 20 µM,–
Cc1c(N=Nc2c(O)[nH]c(=O)[nH]c2=O)c(=O)n(-c2ccccc2)n1C,active: 15.8 µM,–
Cc1c(Cl)cccc1Nc1ccccc1C(=O)O,inactive,–
COC(=O)[C@H]1[C@H]2CC3c4[nH]c5ccccc5c4CCN3C[C@@H]2CC[C@@H]1O (some centres undefined),–,inactive: -7.54%
N#C/C(=C\c1ccc(O)c(O)c1)C(=O)Nc1ccccc1,–,inactive: -25.8%
CCCc1ncc(C[n+]2ccccc2C)c(N)n1,–,inactive: -1.63% [at 21.7 µM]
Oc1ccc(C2CNCCc3c2cc(O)c(O)c3Cl)cc1 (centres undefined),–,inactive: -10.6%
COc1ccc2c3c1OC1CC(O)C=CC31CCN(C)C2 (centres undefined),–,inactive: -15.3%
C=C(CC)C(=O)c1ccc(OCC(=O)O)c(Cl)c1Cl,inactive,–
COc1ccccc1C1CC(=O)Oc2cc3c(cc21)OCO3 (centres undefined),active: 39.7 µM,–
Cc1cc(CC(=O)O)n(C)c1C(=O)c1ccc(Cl)cc1,inactive,–
O=c1cc(-c2ccc(O)c(O)c2)oc2cc(O[C@@H]3O[C@H](CO)[C@@H](O)[C@H](O)[C@H]3O)cc(O)c12,–,inactive: -4.4%
Cc1ccccc1N=Cc1cccc(O)c1O,active: 5.61 µM,–
Cc1ccccc1NNC(=O)C(=O)NNc1ccccc1C,active: 15.8 µM,–
CCN(CC(=O)NCc1ccc(F)cc1)C(=O)CN1CCN(c2ccc(OC)cc2)CC1,active: 7.94 µM,–
Cc1oc2c(c1C(=O)c1ccc(Cl)cc1)C(=O)C(=O)c1ccccc1-2,active: 0.889 µM,–
CC(/C=N/NC(=O)Cc1cccn1C)=C\c1ccco1,–,inactive: -5.08%
CN(C)c1ccc(C(=O)Nc2nnc(C3=COCCO3)o2)cc1,active: 17.7 µM,–
